In assay [1] the target is WzyEPA-His10 (Pectobacterium atrosepticum) (UniProt Q6CZF1). Kind of assay: pull-down; tandem affinity co-purification of co-expressed GST-WzzEPA and WzyEPA-His10 from DDM-solubilised E. coli membranes: glutathione sepharose 4B then cobalt resin, and the reverse order (nickel resin then glutathione sepharose 4B); batch, 4°C, 0.026% DDM.
Assay [2] concerns the target T1, WzyEPA-distrepII (Pectobacterium atrosepticum, UniProt Q6CZF1 1-463).
T1 construct: WzyE, ECA polymerase, Pectobacterium atrosepticum SCRI 1043 (ATCC BAA-672); cloned into a proprietary vector constructed by Huanting Liu; Predicted 57 kDa; the distrepII tag is TEV protease-cleavable; source: DDM-solubilised membranes; not shown: distrepII, C-terminal, kept
T1 sequence (looked up): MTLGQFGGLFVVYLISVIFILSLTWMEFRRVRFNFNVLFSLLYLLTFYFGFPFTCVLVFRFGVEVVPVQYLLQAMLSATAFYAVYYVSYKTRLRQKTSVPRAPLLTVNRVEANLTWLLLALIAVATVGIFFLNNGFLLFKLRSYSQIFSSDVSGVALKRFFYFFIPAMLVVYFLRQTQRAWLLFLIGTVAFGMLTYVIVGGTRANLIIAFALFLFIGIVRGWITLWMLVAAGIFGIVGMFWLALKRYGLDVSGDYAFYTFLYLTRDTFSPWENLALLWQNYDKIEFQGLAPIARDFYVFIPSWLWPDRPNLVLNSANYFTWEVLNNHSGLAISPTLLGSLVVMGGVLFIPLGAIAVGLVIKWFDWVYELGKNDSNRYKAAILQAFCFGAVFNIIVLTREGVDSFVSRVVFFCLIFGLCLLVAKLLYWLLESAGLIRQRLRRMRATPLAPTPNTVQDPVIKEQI
Kind of assay: pull-down; tandem affinity co-purification of co-expressed His6-WzzEPA and WzyEPA-distrepII from DDM-solubilised E. coli membranes: cobalt or Talon resin and streptactin or streptactinXT resin, in either order; batch, 4°C, 0.026% DDM; SDS-PAGE and western blot. (In western blotting, separated proteins are transferred to a membrane and probed.)

Assay [3] concerns the target T1, WzyEPA-distrepII. Kind of assay: native gel or EMSA; blue-native PAGE (Bis-Tris 4-16%) of the affinity-purified co-expressed complex, western immunoblot with anti-His and anti-strep tag II; both purified. (Mobility shift assays separate free from complexed probe on a gel.)
For assay [4], the target named is T1, WzyEPA-distrepII. Kind of assay: SEC; superose 6 10/300; co-expressed and co-purified complex compared with the individually expressed and purified proteins; both purified.
Assay [5] deals with PglL-distrepII-mClover3 (Neisseria meningitidis) (UniProt G1FG65). Kind of assay: FRET or BRET; in vivo FRET in suspensions of E. coli C43(DE3) cells in PBS; mClover3 donor, mCherry acceptor; 488-14/620-20 nm; corrected for background and bleed-through. For orientation: In BRET a luciferase serves as donor, and the signal depends on an acceptor being close.

These are yes or no findings as the source states them, for the method shown. For some assays here: In cells and extracts the contact can be indirect. Some entries that bind do so weakly or less than the wild type. For some assays here: Tags and fused reporters may be left off the sequences shown.

B1: GST-WzzEPA (protein, UniProt Q6CZE3 1-348)
chain: MKSENLSTGNALIDNELDIRGLFRLLWRGKVWPIAIGLLFAVVALGYSYLVKQEWGATSITDKPTVNMLGGYYSQQQFLRNLDARSFSSPQPEQPSISAGAYDEFIMQLAAYDTRRDFWLQTDYYKQRLEGDEKADAALLDELVNNIQFTARDDGKKTNDSVKLVAETSSDSNTLLRQYVVFASQRAANHLNEEIKGAWAARTIFMKSQIKRQEAVAKAIYDREVRSVELALKIAQQQGISRSQTDTPADEIPASEMFLLGRPMLQARLETLQTSGPHYELDYDQNRAMLATLNVGPTLEASFQTYRYLRTPEEPVKRDSPRRAFLMVMWGAIGVLVGAGVALARRLR
For the molecule B1, the binding result in assay [1] is recorded as “binds”.

B2: His6-WzzEPA (natural protein, Pectobacterium atrosepticum, UniProt Q6CZE3 1-348, looked up)
chain: B1 chain
notes: WzzE, polysaccharide co-polymerase of enterobacterial common antigen biosynthesis, Pectobacterium atrosepticum SCRI 1043 (ATCC BAA-672); cloned into pEHisTEV; Predicted 42 kDa; His6 tag is TEV protease-cleavable; The methods say that Wzz ran as a double band and that the lower band was not seen by the anti-His antibody (partly untagged); Isolated Wzz may have various oligomeric states; octamer in …
With B2, the binding result with WzyEPA-distrepII [2], with WzyEPA-distrepII [3] and in the assay with WzyEPA-distrepII [4] was “binds” throughout.

B3: mCherry-WzzEPA (protein, UniProt Q6CZE3 1-348)
chain: B1 chain
As for B3, in assay [5], the binding entry is on record as “no binding”.

The record behind these values is paper PMC10030265, “The lipid linked oligosaccharide polymerase Wzy and its regulating co-polymerase, Wzz, from enterobacterial common antigen biosynthesis form a complex” (Open Biology, 2023).
